Results taken from the supplement of paper PMC9334596.
Where “and” joins values, the source holds several entries; their conditions need not be identical. Equal entries are not always repeated. Over roughly 5,300 compounds, “PER2::LUC luminescence relative to vehicle control” has its median near 0.96; the highest 2% begin near 1.3. Some of the results follow.

Tested on: mPer2Luc MEF
Experiment: PER2::LUC luminescence relative to vehicle control (fold of vehicle); higher = higher PER2::LUC reporter signal
Details: 10 µM
Method in brief: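 Mouse embryonic fibroblasts carrying the mPer2Luc reporter were seeded at ~3000 cells per well in 384-well plates, 48 h before compounds from commercial libraries were added at 10 μM. Cells were grown in DMEM with 10% FBS at 37 °C and 5% CO2. Luminescence was read with the ONE-Glo luciferase assay system 24 h and 30 h after treatment, followed by an alamarBlue viability assay. The value is PER2::LUC luminescence as fold of vehicle control.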

Row | SMILES | PER2::LUC luminescence (time after treatment 24 h) | PER2::LUC luminescence (time after treatment 30 h)
1 | CSc1ccc(/C=C2/C(C)=C(CC(=O)O)c3cc(F)ccc32)cc1 | 0.439 | 0.881
2 | COc1ccc([C@H]2Oc3cc(OC)cc(OC)c3C[C@H]2O)cc1 | 0.942 | 0.967
3 | CC[C@]12CCCN3CCc4c(n(c5ccccc45)[C@@](O)(C(=O)OC)C1)[C@@H]32 | 0.811 | 0.723
4 | COc1ccc(CCN(C)CCCC(C#N)(c2ccc(OC)c(OC)c2)C(C)C)cc1OC (racemic) | 0.776 | 0.84
5 | COc1ccc2c(c1)OCC(Cc1ccc(OC)c(OC)c1)C2=O (stereo not given) | 0.96 | 0.946
6 | C=CC(=O)c1ccc(CCCCCC)cc1 | 1.02 | 0.845
7 | Cn1c(=O)c(F)c(Nc2ccc(I)cc2F)c2c(=O)n(C[C@@H](O)CO)cnc21 | 0.266 | 0.151
8 | CCC[C@@H](NC(=O)N1C(=O)C(CC)(CC)[C@@H]1Oc1ccc(C(=O)N2CCN(C)CC2)cc1)c1ccc2c(c1)OCO2 | 0.821 | 0.798
9 | NCC(=O)N1C[C@H](NC(=O)c2ccccc2)C[C@H]1C(=O)O | 1.04 | 0.699
10 | O=c1[nH]c(=O)n([C@H]2C[C@H](O)[C@@H](CO)O2)cc1/C=C/Br | 0.844 and 0.688 | 0.99 and 0.957
11 | Cc1ccc(O)c([C@H](CCN(C(C)C)C(C)C)c2ccccc2)c1 | 0.848 | 0.859
12 | Cc1nc(N=Nc2ccc(S(=O)(=O)O)cc2S(=O)(=O)O)c(COP(=O)(O)O)c(C=O)c1O | 0.953 | 0.964
13 | CCCCC[C@H](CC(=O)NO)C(=O)N[C@H](C(=O)N1CCC[C@H]1CO)C(C)C | 0.578 | 0.573
14 | CC(=O)OC(C)C[N+](C)(C)C (stereo not given) | 1.05 | 1.25
15 | CCCCOc1ccc(CC(=O)NO)cc1 | 1.01 | 1.01
16 | NC[C@H]1CC[C@H](C(=O)O)CC1 | 0.757 | 0.973
17 | C=CCc1ccccc1OCC(O)CNC(C)C (stereo not given) | 0.943 and 0.778 | 0.805 and 0.767
18 | Oc1c(Cl)cc(Cl)cc1Sc1cc(Cl)cc(Cl)c1O | 0.855 and 0.769 | 0.947 and 0.783
19 | COc1ccc2nc3cc(Cl)ccc3c(Nc3cc(CN4CCCC4)c(O)c(CN4CCCC4)c3)c2n1 | 0.715 | 0.746
20 | CN(C)C(=O)N=NC(=O)N(C)C | 1.1 | 0.903
21 | CCN1/C(=C/C(C)=O)Sc2ccc(OC)cc21 | 0.746 | 0.945
22 | C/N=C(/NC#N)NCCSCc1csc(NC(=N)N)n1 | 0.944 | 1.03
23 | Nc1nc(=O)c2c([nH]1)NCC(CNc1ccc(C(=O)N[C@@H](CCC(=O)O)C(=O)O)cc1)N2C=O (stereo not given in full) | 1 and 0.696 | 0.941 and 0.777
24 | Cc1c(Cl)cccc1S(=O)(=O)Nc1nc(NCCc2ccccc2)nc2c1CN(Cc1ccccc1)CC2 | 0.881 | 0.794
25 | CC(=O)c1ccc2c(c1)N(CCCN1CCN(CCO)CC1)c1ccccc1S2 | 0.565 | 0.513
